These are yes or no findings as the source states them, for the method shown. For part of these data: In cells and extracts the contact can be indirect. Some entries that bind do so weakly or less than the wild type. For part of these data: Where a sequence is shown, tags or fusion partners need not be part of it.
Key:
Pxr1-TAP (S. cerevisiae) = biological target: T1, Pxr1-TAP (S. cerevisiae) (UniProt P53335); assay: tandem affinity purification with Western blotting; Tma23-TAP and Pxr1-TAP purified from yeast lysate (IgG Sepharose, TEV elution, Calmodulin Sepharose); eluates blotted with antibodies against Tma23, Pxr1 and Prp43
T1 sequence: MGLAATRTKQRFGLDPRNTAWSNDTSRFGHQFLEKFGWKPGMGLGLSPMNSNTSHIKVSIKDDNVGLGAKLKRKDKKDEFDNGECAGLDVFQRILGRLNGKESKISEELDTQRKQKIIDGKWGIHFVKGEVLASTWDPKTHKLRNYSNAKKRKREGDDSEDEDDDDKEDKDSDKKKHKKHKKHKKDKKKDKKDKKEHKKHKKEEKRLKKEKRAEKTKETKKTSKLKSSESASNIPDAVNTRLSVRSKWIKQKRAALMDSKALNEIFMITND

Protein sequences, listed by entry. Tags and fused reporters are not part of them.
UniProt P53131: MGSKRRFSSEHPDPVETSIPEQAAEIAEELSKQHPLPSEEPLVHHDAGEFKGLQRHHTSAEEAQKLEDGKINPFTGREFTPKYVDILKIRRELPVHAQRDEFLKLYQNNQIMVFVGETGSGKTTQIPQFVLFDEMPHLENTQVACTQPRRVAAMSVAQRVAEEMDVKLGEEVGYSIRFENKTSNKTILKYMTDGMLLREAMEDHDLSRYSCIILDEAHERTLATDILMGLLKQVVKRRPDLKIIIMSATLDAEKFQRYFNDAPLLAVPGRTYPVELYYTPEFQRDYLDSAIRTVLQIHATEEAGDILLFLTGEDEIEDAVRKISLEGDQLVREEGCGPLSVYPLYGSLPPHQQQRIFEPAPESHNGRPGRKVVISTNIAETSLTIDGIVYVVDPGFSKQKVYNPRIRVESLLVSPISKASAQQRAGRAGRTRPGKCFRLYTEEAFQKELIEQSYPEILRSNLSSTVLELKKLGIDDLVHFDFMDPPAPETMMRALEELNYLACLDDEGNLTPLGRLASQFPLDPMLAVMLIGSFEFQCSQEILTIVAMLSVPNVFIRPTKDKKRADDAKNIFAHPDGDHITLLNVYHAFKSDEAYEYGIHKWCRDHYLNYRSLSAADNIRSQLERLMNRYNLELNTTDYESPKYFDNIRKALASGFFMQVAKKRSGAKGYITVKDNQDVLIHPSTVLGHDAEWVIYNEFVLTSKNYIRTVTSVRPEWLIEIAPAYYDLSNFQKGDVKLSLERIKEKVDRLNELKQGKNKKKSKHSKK

[1] = biological target: T2, GST-Pfa1^G (S. cerevisiae) (UniProt P53866); assay: pull-down; GST-tagged variants co-expressed with His6-Prp43 in E. coli; lysate on Glutathione Sepharose 4 Fast Flow beads, 25 mM Tris-HCl pH 7.5, 150 mM NaCl, 5 mM MgCl2, 10% glycerol, 0.1% NP-40, 4 °C; eluted with LDS buffer, Coomassie staining
T2 sequence: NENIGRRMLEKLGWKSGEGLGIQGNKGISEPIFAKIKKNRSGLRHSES

[2] = biological target: T3, Pxr1^GM (recombinant, co-expressed with Prp43) (S. cerevisiae) (UniProt P53335); assay: as above
T3 sequence: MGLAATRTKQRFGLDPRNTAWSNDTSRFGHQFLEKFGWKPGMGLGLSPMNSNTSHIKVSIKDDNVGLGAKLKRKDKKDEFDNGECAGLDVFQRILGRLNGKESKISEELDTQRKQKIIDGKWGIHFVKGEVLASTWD

binding (Pxr1-TAP (S. cerevisiae)) | binding [1] | binding [2] | Substance
binds |  |  | Prp43 (from UniProt P53131 1-767) (enzyme)
 | binds | binds | His6-Prp43 (from UniProt P53131 1-767) (enzyme)
